Consider 59 compounds from PubChem BioAssay AID1956 (SRMLSC, 2009).

Each structure is given as a SMILES string. The list shows a part of the results. The main result of the screen is listed elsewhere. These columns were measured beside it and carry no call.

The test can be described thus: compounds boosting herpes simplex virus growth – fold increase, host cell viability (AID 1956). Note: tested in PC3 cells. The conditions noted are these: HSV replication augmentation in cells; fold increase: measured here: primary screen fold increase 10 uM, at 10 µM, stronger effect = higher value; viability: measured here: host cell viability series, at 25 µM, stronger effect = lower value.
Broadly, the viability is a read-out of living cells in per cent, often relative to untreated cells. For the compound `CCN1/C(=C/c2cc[n+](CCCS(=O)(=O)[O-])c3ccccc23)Sc2ccccc21`, the fold increase was 1.75 and the viability was 86.4%.

As to `Cc1ccc(NC(=O)N(Cc2ccc3c(c2)OCO3)Cc2cc3cc4c(cc3[nH]c2=O)OCCO4)cc1`, the fold increase came to 1.13.

As to `CCn1c(C)cc(/C=C2/SC(=S)N(CC(=O)O)C2=O)c1C`, the fold increase came out at 1.82.

Turning to `COc1cccc(CSc2nnc(CSc3nc4nc(C)cc(C)n4n3)s2)c1`, the fold increase came out at 1.35 and the viability was determined as 94%.

`C/C(=N/NC(=O)c1cccs1)c1c(C)[nH]n(-c2nc3ccccc3s2)c1=O`: the fold increase worked out at 1.34.

Consider `COc1ccc(C(=O)c2sc3nc(C)cc(-c4cccs4)c3c2N)cc1`, for which the fold increase worked out at 1.69 and the viability is 83.4%.

Consider `CCOC(=O)C1=C(Cc2ccc(Cl)cc2)C(=O)c2ccccc2C1=O`, for which the fold increase stood at 3.18 and the viability turned out to be 70.2%.

Regarding `CC(C)CN(C(=O)CN1CCc2ccccc21)c1c(N)n(CC(C)C)c(=O)[nH]c1=O`, the fold increase is 1.51 and the viability is 89.9%.

Take `O=c1[nH]c(Cc2ccccn2)nc2scc(-c3ccccc3Cl)c12`: the fold increase was found to be 2.18 and the viability stood at 78.4%.

In the case of `Cc1ccc(S(=O)(=O)NCCCC(=O)O)cc1`, the fold increase came out at 1.61 and the viability amounted to 96.2%.

`Nc1ccccc1Nc1cc(-c2ccccc2)nn1-c1ccccc1`: the fold increase is 1.72 and the viability worked out at 103%.

Take `O=[N+]([O-])c1ccccc1-c1ccc(C(=S)N2CCCCC2)o1`: the fold increase came out at 1.42 and the viability came to 97.7%.

As to `CC(=O)Nc1ccc(S(=O)(=O)Nc2nc3ccccc3nc2Nc2ccc(N)cc2)cc1`, the fold increase was 2.46 and the viability worked out at 96.9%.

Turning to `CC1CCCN(C(=O)COC(=O)c2ccc[nH]c2=O)C1` (configuration not stated), the fold increase stood at 1.34 and the viability was determined as 97.6%.

On to `COc1cccc(=O)c2c(C)n(-c3ccc(C(=O)O)cc3)c(C)c12`, for which the fold increase worked out at 1.4 and the viability came out at 93.9%.

In turn, `Cc1ccc(S(=O)(=O)Nc2cc(C(C(=O)OC(C)C)C(=O)C(F)(F)F)c(O)c3ccccc23)c(C)c1` (configuration not stated) yielded a fold increase of 1.66.

As for `O=C(O)c1ccc(-c2ccc(/C=N/Nc3ccc([N+](=O)[O-])cc3)o2)cc1`, the fold increase amounted to 2.78 and the viability stood at 98.9%.

Regarding `CC(C)(C)c1ccc(-c2nnc3sc(-c4ccccn4)nn23)cc1`, the fold increase worked out at 1.46 and the viability is 87.2%.

Take `CC(C)c1cc(=O)oc2c3c4c(cc12)CCCN4CCC3`: the fold increase came to 1.53 and the viability is 89%.

Consider `O=C(O)/C(=C/c1ccco1)c1ccccc1`, for which the fold increase came out at 1.89 and the viability stood at 99.4%.

Consider `CCn1cc(NC(=O)Nc2ccccc2C(=O)OC)c(C(N)=O)n1`, for which the fold increase was 1.43 and the viability was determined as 102%.

Turning to `CC(C)NC(=O)NC(=O)COC(=O)c1ncc(Cl)c(Cl)c1Cl`, the fold increase was 1.39 and the viability worked out at 95.8%.

Compound `O=C(NCCCN1CCOCC1)c1ccccc1NS(=O)(=O)c1cc([N+](=O)[O-])ccc1Cl` registered a fold increase of 1.34.

In turn, `Cc1c(Cc2ccccc2)sc(/N=C/c2c(O)ccc3ccccc23)c1C(N)=O` came in with a fold increase of 1.32.

In turn, `CCOC(=O)N1CCC(Nc2c(Nc3ccc(F)cc3)c(=O)c2=O)CC1` came in with a fold increase of 1.32.

Take `Cc1cc(OCC(=O)Nc2cc(-c3nn4c(C)nnc4s3)ccc2C)ccc1Cl`: the fold increase came to 1.36 and the viability was found to be 103%.

As to `COc1cc(/C=C2\SC(=S)N(N(C)c3ccccc3)C2=O)ccc1O`, the fold increase was 7.06 and the viability stood at 90.5%.

Take `CCOC(=O)/C(=C/C1=CC(=C/N(C)C)/C(=O)O1)C(C)=O`: the fold increase turned out to be 1.94 and the viability worked out at 98.6%.

As for `C=CCNC(=O)c1sc(=S)n(-c2ccc(C(=O)OCC)cc2)c1N`, the fold increase came out at 1.33 and the viability amounted to 87.2%.

The compound `COc1cc(NC(=S)NC(=O)c2ccc(C)cc2C)ccc1NC(=O)c1cccs1` registered a fold increase of 1.16.

As to `CCN1/C(=C/c2ccc3cc(C)ccc3[n+]2CC)Sc2cc(C)ccc21`, the fold increase came out at 8.24 and the viability worked out at 12.9%.

As for `COCCn1c(C)cc2c(c1=O)C(c1ccco1)C(C#N)=C(N)O2` (configuration not stated), the fold increase came out at 1.81 and the viability was 99.4%.

As for `COc1cc(OC)cc(C(=O)NCc2n[nH]c(=S)n2-c2ccccc2)c1`, the fold increase was found to be 1.36 and the viability is 94.1%.

On to `Cc1ccc(S(=O)(=O)NC(=O)Nc2ncc3c(n2)CC(c2ccco2)CC3=O)cc1` (configuration not stated), for which the fold increase stood at 1.37 and the viability turned out to be 95.5%.

As to `Cn1cccc1/C=N/NC(=O)CSc1nc2ccccc2[nH]1`, the fold increase is 1.38 and the viability was 99.9%.

For the compound `CCC1=Nc2ccccc2NC2=C1C(=O)CCC2`, the fold increase worked out at 1.4 and the viability stood at 95.7%.

For `NNC(=O)c1oc2nc(-c3ccco3)cc(-c3ccco3)c2c1N`, the fold increase amounted to 1.36 and the viability is 97.6%.

As for `CC(=O)NCCC(=O)Nc1nc(-c2cccs2)c(-c2cccs2)s1`, the fold increase came out at 1.37 and the viability was 97.3%.

As for `CSC1=NSC2=NC(=O)/C(=C/c3coc4ccc(O)cc4c3=O)C(=N)N12`, the fold increase was 1.5 and the viability was determined as 102%.

With `COc1ccc(/C=C2\CCCc3c2nc2ccccc2c3C(=O)O)cc1OC`, the fold increase stood at 7.99 and the viability was 98.1%.

Regarding `CCCC(C(=O)O)N1C(=O)/C(=C/c2cccn2C)SC1=S` (configuration not stated), the fold increase worked out at 1.65 and the viability was 105%.

Regarding `N#C/C(=C\c1ccc(OC(=O)c2ccc(Br)s2)cc1)c1nc2ccccc2[nH]1`, the fold increase turned out to be 1.34.

On to `CCCCNc1ccc(C(=O)Nc2cccc(C)n2)cc1[N+](=O)[O-]`, for which the fold increase worked out at 1.4 and the viability stood at 97.4%.

For `Cc1occc1C(=O)Nc1c(F)c(F)c(F)c(F)c1F`, the fold increase was 1.32 and the viability is 96.2%.

In the case of `COc1cc(C2N(c3ccc(Cl)cc3)C(=O)C3CCCN32)cc(OC)c1OC` (configuration not stated), the fold increase was 1.41 and the viability is 101%.

The compound `COc1ccc(S(=O)(=O)N/N=C\c2ccc(OC)c(COc3ccc(C)cc3[N+](=O)[O-])c2)cc1` yielded a fold increase of 1.07.

Regarding `N#CC1=C(N)Oc2ccc3ccc(O)cc3c2C1c1ccsc1` (configuration not stated), the fold increase amounted to 5.07 and the viability was found to be 91.7%.

For `COC(=O)CSc1nc2ccc(C)cc2cc1C#N`, the fold increase came to 1.39 and the viability came out at 96%.

Regarding `COc1ccc(N=Nc2nc3cc(Br)c(Br)cc3n2C)c(OC)c1`, the fold increase was 2.53 and the viability was 56.5%.

On to `O=C1/C(=C\c2ccc(O)cc2)SC(=S)N1c1cccnc1`, for which the fold increase was 3.82 and the viability is 93%.

`CCc1ccc(NC(=O)CS(=O)CC(=O)NC(C)CCc2ccco2)cc1` (configuration not stated) displayed a fold increase of 1.07.

For `N#CCCN1CCN(S(=O)(=O)c2ccc(S(=O)(=O)NC3CC3)cc2)CC1`, the fold increase amounted to 1.38 and the viability worked out at 99.3%.

Consider `CC1=C(C(=O)Nc2ccccc2Cl)C(c2ccc(N(C)C)cc2)NC(=O)N1` (configuration not stated), for which the fold increase stood at 1.33 and the viability stood at 94.4%.

In the case of `N#Cc1ccc(-c2ccc(F)cc2)nc1SCC(=O)Nc1sc2c(c1C#N)CCC2`, the fold increase stood at 1.82 and the viability was 69%.

As for `CCOC(=O)N1CC=C2C(C#N)=C(N)C(C#N)(C#N)[C@H](c3ccccc3OCC)[C@H]2C1`, the fold increase turned out to be 1.34 and the viability was determined as 96.1%.

With `Cc1ccccc1OCC(=O)OCC(=O)Nc1cc(C(F)(F)F)ccc1N1CCOCC1`, the fold increase was found to be 1.33 and the viability was 98.8%.

In the case of `O=C(OCCN1C(=O)c2cccc3c(N4CCOCC4)ccc(c23)C1=O)c1ccc(Cl)cc1Cl`, the fold increase amounted to 8.33 and the viability was found to be 50.1%.

`COc1cc(N2CCCC2)c(OC)cc1/C=C(/C#N)c1cccc(Br)c1`: the fold increase is 1.35 and the viability stood at 91%.

Regarding `COC(=O)c1ccc(N2Cc3ccccc3/C2=N\C(=O)Nc2ccccc2)cc1`, the fold increase is 1.39 and the viability was determined as 94.4%.
